# The supplement of paper PMC8728848
# Some of the results follow.
# B1: Cohesin-mDCIR (Macaca mulatta) (protein)
# chain: GLDDLDAVRIKVDTVNAKPGDTVRIPVRFSGIPSKGIANCDFVYSYDPNVLEIIEIEPGDIIVDPNPDKSFDTAVYPDRKIIVFLFAEDSGTGAYAITKDGVFATIVAKVKEGAPNGLSVIKFVEVGGFANNDLVEQKTQFFDGGVNVGDTTEPATPTTPVTTPTTTDDLDAASFQKYSQLLEKMTTKDLVHTTLECVKKNMTTEETAWSCCPKNWKPFSSNCYFISTESASWQKSEKDCARMEAHLLVINTREEQDFIFQNLQEESAYFVGLSDPEGQRHWQWVDRTPYNESSTFWHPHEPSDPDERCVVLNFRKTPKRWGWNDVHCIVHQRSVCEMMKIHLHHHHHH
# Experiments:
# Assay in all cases: glycan array binding signal (z-score within array); higher = stronger binding
# Settings in all cases: glycan notation: IUPAC condensed, linker removed
# [1] = target: GlcNAc(b1-3)Gal(b1-4)GlcNAc(b1-3)Gal(b1-4)GlcNAc(b1-2)Man(a1-3)[GlcNAc(b1-3)Gal(b1-4)GlcNAc(b1-3)Gal(b1-4)GlcNAc(b1-2)Man(a1-6)]Man(b1-4)GlcNAc(b1-4)[Fuc(a1-6)]GlcNAc
# Procedure, shortened: (§1)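 Columns mapping to the same glycan were averaged after glycan names were converted to IUPAC-condensed notation. The data come from 3228 arrays in the Consortium for Functional Glycomics database, limited to those with an available protein sequence. Binding is reported as a within-array Z-score averaged across arrays of one protein sequence and across linkers.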
# [2] = target: GlcNAc(b1-3)Gal(b1-4)GlcNAc(b1-3)Gal(b1-4)GlcNAc(b1-2)[GlcNAc(b1-3)Gal(b1-4)GlcNAc(b1-3)Gal(b1-4)GlcNAc(b1-6)]Man(a1-6)[GlcNAc(b1-3)Gal(b1-4)GlcNAc(b1-3)Gal(b1-4)GlcNAc(b1-2)Man(a1-3)]Man(b1-4)GlcNAc(b1-4)[Fuc(a1-6)]GlcNAc
# Procedure, shortened: as §1
# [3] = target: GlcNAc(b1-3)Gal(b1-4)GlcNAc(b1-3)Gal(b1-4)GlcNAc(b1-3)Gal(b1-4)GlcNAc(b1-2)Man(a1-3)[GlcNAc(b1-3)Gal(b1-4)GlcNAc(b1-3)Gal(b1-4)GlcNAc(b1-3)Gal(b1-4)GlcNAc(b1-2)Man(a1-6)]Man(b1-4)GlcNAc(b1-4)GlcNAc
# Procedure, shortened: as §1
# [4] = target: GlcNAc(b1-3)Gal(b1-4)GlcNAc(b1-3)Gal(b1-4)GlcNAc(b1-3)Gal(b1-4)GlcNAc(b1-2)Man(a1-3)[GlcNAc(b1-3)Gal(b1-4)GlcNAc(b1-3)Gal(b1-4)GlcNAc(b1-3)Gal(b1-4)GlcNAc(b1-2)Man(a1-6)]Man(b1-4)GlcNAc(b1-4)[Fuc(a1-6)]GlcNAc
# Procedure, shortened: as §1
# [5] = target: GlcNAc(b1-3)Gal(b1-4)GlcNAc(b1-3)Gal(b1-4)GlcNAc(b1-3)Gal(b1-4)GlcNAc(b1-2)[GlcNAc(b1-3)Gal(b1-4)GlcNAc(b1-3)Gal(b1-4)GlcNAc(b1-3)Gal(b1-4)GlcNAc(b1-6)]Man(a1-6)[GlcNAc(b1-3)Gal(b1-4)GlcNAc(b1-3)Gal(b1-4)GlcNAc(b1-3)Gal(b1-4)GlcNAc(b1-2)Man(a1-3)]Man(b1-4)GlcNAc(b1-4)[Fuc(a1-6)]GlcNAc
# Procedure, shortened: as §1
# [6] = target: GlcNAc(b1-3)Gal(b1-4)GlcNAc(b1-3)Gal(b1-4)GlcNAc(b1-3)Gal(b1-4)GlcNAc(b1-3)Gal(b1-4)GlcNAc(b1-2)Man(a1-3)[GlcNAc(b1-3)Gal(b1-4)GlcNAc(b1-3)Gal(b1-4)GlcNAc(b1-3)Gal(b1-4)GlcNAc(b1-3)Gal(b1-4)GlcNAc(b1-2)Man(a1-6)]Man(b1-4)GlcNAc(b1-4)GlcNAc
# Procedure, shortened: as §1
# [7] = target: GlcNAc(b1-3)Gal(b1-4)GlcNAc(b1-3)Gal(b1-4)GlcNAc(b1-3)Gal(b1-4)GlcNAc(b1-3)Gal(b1-4)GlcNAc(b1-2)Man(a1-3)[GlcNAc(b1-3)Gal(b1-4)GlcNAc(b1-3)Gal(b1-4)GlcNAc(b1-3)Gal(b1-4)GlcNAc(b1-3)Gal(b1-4)GlcNAc(b1-2)Man(a1-6)]Man(b1-4)GlcNAc(b1-4)[Fuc(a1-6)]GlcNAc
# Procedure, shortened: as §1
# [8] = target: GlcNAc(b1-3)Gal(b1-4)GlcNAc(b1-3)Gal(b1-4)GlcNAc(b1-3)Gal(b1-4)GlcNAc(b1-3)Gal(b1-4)GlcNAc(b1-2)[GlcNAc(b1-3)Gal(b1-4)GlcNAc(b1-3)Gal(b1-4)GlcNAc(b1-3)Gal(b1-4)GlcNAc(b1-3)Gal(b1-4)GlcNAc(b1-6)]Man(a1-6)[GlcNAc(b1-3)Gal(b1-4)GlcNAc(b1-3)Gal(b1-4)GlcNAc(b1-3)Gal(b1-4)GlcNAc(b1-3)Gal(b1-4)GlcNAc(b1-2)Man(a1-3)]Man(b1-4)GlcNAc(b1-4)[Fuc(a1-6)]GlcNAc
# Procedure, shortened: as §1
# [9] = target: GlcNAc(b1-3)Gal(b1-4)GlcNAc(b1-3)Gal(b1-4)GlcNAc(b1-3)GalNAc
# Procedure, shortened: as §1
# [10] = target: GlcNAc(b1-3)Gal(b1-4)GlcNAc(b1-3)GalNAc
# Procedure, shortened: as §1
# [11] = target: GlcNAc(b1-3)Gal(b1-4)GlcNAc(b1-3)[GlcNAc(b1-3)Gal(b1-4)GlcNAc(b1-3)]GalNAc
# Procedure, shortened: as §1
# [12] = target: GlcNAc(b1-3)Gal(b1-4)GlcNAc(b1-6)[Gal(b1-3)]GalNAc
# Procedure, shortened: as §1
# [13] = target: GlcNAc(b1-3)Gal(b1-4)GlcNAc(b1-6)[GlcNAc(b1-3)Gal(b1-3)]GalNAc
# Procedure, shortened: as §1
# [14] = target: GlcNAc(b1-3)Gal(b1-4)GlcNAc(b1-6)[GlcNAc(b1-3)]Gal(b1-4)GlcNAc
# Procedure, shortened: as §1
# GlcNAc(b1-3)GalNAc = target: GlcNAc(b1-3)GalNAc
# Procedure, shortened: as §1
# GlcNAc(b1-3)Man = target: GlcNAc(b1-3)Man
# Procedure, shortened: as §1
# [15] = target: GlcNAc(b1-3)[GlcNAc(b1-4)][GlcNAc(b1-6)]GlcNAc
# Procedure, shortened: as §1
# [16] = target: GlcNAc(b1-3)[GlcNAc(b1-6)]Gal(b1-4)GlcNAc
# Procedure, shortened: as §1
# [17] = target: GlcNAc(b1-3)[GlcNAc(b1-6)]GalNAc
# Procedure, shortened: as §1
# [18] = target: GlcNAc(b1-4)Gal(b1-4)GlcNAc
# Procedure, shortened: as §1
# GlcNAc(b1-4)GlcNAc = target: GlcNAc(b1-4)GlcNAc
# Procedure, shortened: as §1
# [19] = target: GlcNAc(b1-4)GlcNAc(b1-4)GlcNAc
# Procedure, shortened: as §1
# [20] = target: GlcNAc(b1-4)GlcNAc(b1-4)GlcNAc(b1-4)GlcNAc(b1-4)GlcNAc
# Procedure, shortened: as §1
# [21] = target: GlcNAc(b1-4)GlcNAc(b1-4)GlcNAc(b1-4)GlcNAc(b1-4)GlcNAc(b1-4)GlcNAc
# Procedure, shortened: as §1
# [22] = target: GlcNAc(b1-4)[GlcNAc(b1-6)]GalNAc
# Procedure, shortened: as §1
# [23] = target: GlcNAc(b1-6)Gal(b1-4)GlcNAc
# Procedure, shortened: as §1
# GlcNAc(b1-6)GalNAc = target: GlcNAc(b1-6)GalNAc
# Procedure, shortened: as §1
# [24] = target: GlcNAc6S(b1-3)Gal(b1-4)GlcNAc
# Procedure, shortened: as §1
# Kdn(a2-3)Gal(b1-3)GalNAc = target: Kdn(a2-3)Gal(b1-3)GalNAc
# Procedure, shortened: as §1
# Kdn(a2-3)Gal(b1-3)GlcNAc = target: Kdn(a2-3)Gal(b1-3)GlcNAc
# Procedure, shortened: as §1
# Kdn(a2-3)Gal(b1-4)Glc = target: Kdn(a2-3)Gal(b1-4)Glc
# Procedure, shortened: as §1
# Kdn(a2-3)Gal(b1-4)GlcNAc = target: Kdn(a2-3)Gal(b1-4)GlcNAc
# Procedure, shortened: as §1
# [25] = target: Kdn(a2-3)Gal(b1-4)[Fuc(a1-3)]GlcNAc
# Procedure, shortened: as §1
# Kdn(a2-6)Gal(b1-4)GlcNAc = target: Kdn(a2-6)Gal(b1-4)GlcNAc
# Procedure, shortened: as §1
# [26] = target: Man(a1-2)Man(a1-2)Man(a1-3)Man
# Procedure, shortened: as §1
# [27] = target: Man(a1-2)Man(a1-2)Man(a1-6)[Man(a1-3)]Man
# Procedure, shortened: as §1
# Man(a1-2)Man(a1-3)Man = target: Man(a1-2)Man(a1-3)Man
# Procedure, shortened: as §1
# [28] = target: Man(a1-2)Man(a1-3)[Man(a1-2)Man(a1-6)]Man
# Procedure, shortened: as §1
binder,measurement,setting,value
B1,glycan array binding signal (z-score),[1],0.003
same,glycan array binding signal (z-score),[2],-0.323
same,glycan array binding signal (z-score),[3],-0.414
same,glycan array binding signal (z-score),[4],-0.344
same,glycan array binding signal (z-score),[5],-0.341
same,glycan array binding signal (z-score),[6],0.383
same,glycan array binding signal (z-score),[7],0.153
same,glycan array binding signal (z-score),[8],-0.335
same,glycan array binding signal (z-score),[9],-0.446
same,glycan array binding signal (z-score),[10],-0.361
same,glycan array binding signal (z-score),[11],-0.436
same,glycan array binding signal (z-score),[12],-0.228
same,glycan array binding signal (z-score),[13],-0.421
same,glycan array binding signal (z-score),[14],-0.317
same,glycan array binding signal (z-score),GlcNAc(b1-3)GalNAc,-0.311
same,glycan array binding signal (z-score),GlcNAc(b1-3)Man,-0.298
same,glycan array binding signal (z-score),[15],-0.38
same,glycan array binding signal (z-score),[16],-0.303
same,glycan array binding signal (z-score),[17],-0.253
same,glycan array binding signal (z-score),[18],-0.265
same,glycan array binding signal (z-score),GlcNAc(b1-4)GlcNAc,-0.363
same,glycan array binding signal (z-score),[19],-0.437
same,glycan array binding signal (z-score),[20],-0.295
same,glycan array binding signal (z-score),[21],-0.361
same,glycan array binding signal (z-score),[22],-0.247
same,glycan array binding signal (z-score),[23],-0.393
same,glycan array binding signal (z-score),GlcNAc(b1-6)GalNAc,1.02
same,glycan array binding signal (z-score),[24],-0.133
same,glycan array binding signal (z-score),Kdn(a2-3)Gal(b1-3)GalNAc,-0.439
same,glycan array binding signal (z-score),Kdn(a2-3)Gal(b1-3)GlcNAc,-0.407
same,glycan array binding signal (z-score),Kdn(a2-3)Gal(b1-4)Glc,-0.454
same,glycan array binding signal (z-score),Kdn(a2-3)Gal(b1-4)GlcNAc,-0.393
same,glycan array binding signal (z-score),[25],-0.343
same,glycan array binding signal (z-score),Kdn(a2-6)Gal(b1-4)GlcNAc,-0.464
same,glycan array binding signal (z-score),[26],-0.156
same,glycan array binding signal (z-score),[27],-0.45
same,glycan array binding signal (z-score),Man(a1-2)Man(a1-3)Man,-0.352
same,glycan array binding signal (z-score),[28],-0.268
